The supplement of paper PMC3334620
Over roughly 33,000 sequences, “E-score (-0.5 to 0.5)” has its median near -0.016; the highest 2% begin near 0.31. The list shows a part of the results.

biological target: Cst6 (UniProt P40535); test: PBM E-score (8-mer binding enrichment) (E-score (-0.5 to 0.5)); higher = stronger / more preferred TF binding; most listed sequences are background and not binding sites; details: protein concentration: 200 nM; construct: GST-DNA-binding domain
Outline: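 Yeast transcription factors, full-length or as DNA-binding domains, were expressed with a GST tag using PURExpress in vitro transcription/translation. At about 100-200 nM they were applied to universal all-10-mer Agilent arrays, double-stranded by primer extension on fresh or once-stripped slides. Fluorescent anti-GST detected bound protein, and masliner normalised the scans. E-scores for ungapped eight-base words, pooled with reverse complements, came from the Universal PBM Analysis Suite.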

Sequence	PBM E-score
ATACAACG	0.163
CTTAATTA	0.177
CAGACTAC	-0.17
CAACCTTA	0.0972
ATAGACTC	-0.224
CAAGCCAA	-0.139
GAGTAGCA	0.0442
AGGCCTGG	-0.271
ACACAGCG	0.221
TAGTCCAA	-0.124
CGTTCCAC	-0.235
AGTACTGG	-0.138
ACATCGTA	0.0384
ATTAAAGA	0.222
ATGTTTGC	-0.0666
TCGTTCCA	-0.127
ACATACGA	0.239
TCCGTGCA	0.102
GTGATGGA	0.0419
ATCAGCAG	0.162
ACAGCGTC	0.0143
CACTGGAG	-0.22
AGGAGCCT	-0.209
ACATCCGG	-0.168
GCTTGGGA	-0.149

Sequence	PBM E-score
CGGACGCC	0.0289
AATGGCCT	-0.00837
GGATGGAA	-0.154
CCAAGTTA	0.0417
TTCCGAAA	-0.0146
ATTTAATC	0.182
GGAATAAA	0.0682
CGGACCTA	-0.151
GGGTCCAA	-0.189
ATCATAAA	0.195
TAAGTACA	0.0404
ACACTCCC	-0.177
CATTTTCA	0.268
CAGGAATA	-0.0222
GGTCCGTA	-0.208
AACTGGGT	-0.177
AAATGCCC	-0.145
ACCTTCCG	-0.169
ACGATTTG	0.143
CTATTAGC	0.162
CGTCTGAA	-0.0204
AATTTTAA	0.25
GGTTCGCA	-0.19
CTGGCTTA	-0.135
CTGTACCC	-0.275

Sequence	PBM E-score
GGTAAAGA	0.0496
AATGAGTA	0.0942
GCGGTGCA	-0.261
ATAGCCAA	0.0258
ATTAAATG	0.315
CCCCACCC	0.0755
CCCTACGC	-0.28
CTTCAGAA	-0.0204
GCCTGAAC	-0.253
GGGCCACC	-0.235
GTGTTTCA	0.0262
AAAGGAAA	0.196
ATGTAACA	0.279
CTCGGCGA	0.0893
GCTATAAC	-0.145
AGGAAGGC	0.0249
ACCTTCGG	-0.088
ATCAGCCC	-0.146
CCATATTC	-0.0864
CAATGTCC	-0.129
CGGTATAC	-0.249
GGTATGCA	-0.0783
GCCTCACC	-0.0748
GGCTCGAC	-0.0539
CAGTATGC	-0.064

Sequence	PBM E-score
TATCTCGA	0.133
AGTGTAAA	0.122
CGCTTGGA	-0.207
AGAGGCCT	-0.258
ATCGATGG	-0.00086
AAGGTTGC	-0.161
GTGCCAGA	-0.303
GATCCTCC	-0.376
ACTCTAAT	0.0593
GCAGCAAA	-0.195
ACTCCAAC	-0.151
CGGGGGGC	-0.265
GGGCCCAA	-0.141
CACGTGTC	-0.0316
GGGATTGA	-0.0874
AAATCTAA	0.107
AGTTTTGA	0.131
GTACGAAA	0.193
ACTCTAGG	-0.175
GAACTATA	0.0462
CCGAGAGA	-0.129
CGGACAGC	-0.0579
ACGCGCGA	0.119
AACTCATA	0.122
AGTTATAT	0.0697

Sequence	PBM E-score
AAAGAGCA	0.14
GTTGCTCA	-0.131
GAGTTTCC	-0.137
CGGGACAG	-0.11
AGCGCCAA	-0.102
GTTACCAA	0.0213
ACAGAGTC	-0.00468
ACTCACCT	-0.25
AGTATTAG	0.0444
AGCAACCA	-0.0285
CGGTGACC	0.115
AAATCGGC	0.0993
AAAAACCT	0.0828
CTGCCCGA	-0.14
AAAGGGTA	0.0854
AAGCGCCC	-0.186
TCAAATCA	0.176
CGAGTCTA	-0.265
CAAGGGGA	-0.0838
GAACATTA	0.167
ATTGCCTG	0.152
AGGGCCTG	-0.33
CCATCACA	-0.0245
AACTGATG	0.171
CACGGATG	-0.0168

Sequence	PBM E-score
TAGACTCA	-0.116
ACTCGGTC	-0.0694
GCGCAAGC	-0.094
ACGCTTAA	0.00879
ACACCAGC	-0.21
AACTCGCG	0.106
CTAATACC	-0.0924
ATTAGTTG	0.227
GCCTACTA	-0.00805
ACTAGTCC	-0.0722
GGGTAAGA	-0.108
TACCATCA	-0.0867
AGGGGACC	-0.329
CGCTTTGA	-0.0317
ATAATAAA	0.325
CGGTAAAC	-0.0192
AAGGTGGA	-0.139
AATGGCGC	0.016
ATCCTGAA	0.241
AGACATCG	-0.109
CGATTACA	0.13
ATGCCAAA	5e-05
CGACGTAA	0.451
GTCCCCGA	-0.292
CGACTCAA	-0.0831

Sequence	PBM E-score
ACCGGTAT	-0.217
CACAGCAA	0.234
ACTGCTAT	-0.0957
ACGTAGCT	0.19
GCAGCGCC	0.0306
CGGTGTCC	-0.257
ACTTTTTA	0.22
TGCCCTAA	-0.23
AAGATAAC	0.088
ATCGTAAA	0.172
GGCGTGTA	-0.00998
CTGGGTGA	0.0385
GCAACGCA	-0.216
GACATTGC	0.0623
ATATTTAA	0.355
ATGGTCCC	-0.121
CGGTACTC	-0.26
TCACCCGA	0.173
AAGAGCGG	0.0498
AGAGCAAT	-0.24
CACCTTTC	-0.139
AGCTGATA	0.118
